The whole screen tested about 310,000 compounds, of which about 14,000 (4.5%) showed an effect of 50% or more. The effect is printed as a negative number. The list shows a part of the results.
molecular target: human ether-à-go-go-related gene (hERG) potassium channel (human, UniProt Q12809); experiment: primary screen, population patch clamp on CHO cells stably expressing hERG
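Also: peak tail current of the secondary pulse compared with the same well before compound.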

human ether-à-go-go-related gene (hERG) potassium channel, sequence (Q12809 whole entry, looked up): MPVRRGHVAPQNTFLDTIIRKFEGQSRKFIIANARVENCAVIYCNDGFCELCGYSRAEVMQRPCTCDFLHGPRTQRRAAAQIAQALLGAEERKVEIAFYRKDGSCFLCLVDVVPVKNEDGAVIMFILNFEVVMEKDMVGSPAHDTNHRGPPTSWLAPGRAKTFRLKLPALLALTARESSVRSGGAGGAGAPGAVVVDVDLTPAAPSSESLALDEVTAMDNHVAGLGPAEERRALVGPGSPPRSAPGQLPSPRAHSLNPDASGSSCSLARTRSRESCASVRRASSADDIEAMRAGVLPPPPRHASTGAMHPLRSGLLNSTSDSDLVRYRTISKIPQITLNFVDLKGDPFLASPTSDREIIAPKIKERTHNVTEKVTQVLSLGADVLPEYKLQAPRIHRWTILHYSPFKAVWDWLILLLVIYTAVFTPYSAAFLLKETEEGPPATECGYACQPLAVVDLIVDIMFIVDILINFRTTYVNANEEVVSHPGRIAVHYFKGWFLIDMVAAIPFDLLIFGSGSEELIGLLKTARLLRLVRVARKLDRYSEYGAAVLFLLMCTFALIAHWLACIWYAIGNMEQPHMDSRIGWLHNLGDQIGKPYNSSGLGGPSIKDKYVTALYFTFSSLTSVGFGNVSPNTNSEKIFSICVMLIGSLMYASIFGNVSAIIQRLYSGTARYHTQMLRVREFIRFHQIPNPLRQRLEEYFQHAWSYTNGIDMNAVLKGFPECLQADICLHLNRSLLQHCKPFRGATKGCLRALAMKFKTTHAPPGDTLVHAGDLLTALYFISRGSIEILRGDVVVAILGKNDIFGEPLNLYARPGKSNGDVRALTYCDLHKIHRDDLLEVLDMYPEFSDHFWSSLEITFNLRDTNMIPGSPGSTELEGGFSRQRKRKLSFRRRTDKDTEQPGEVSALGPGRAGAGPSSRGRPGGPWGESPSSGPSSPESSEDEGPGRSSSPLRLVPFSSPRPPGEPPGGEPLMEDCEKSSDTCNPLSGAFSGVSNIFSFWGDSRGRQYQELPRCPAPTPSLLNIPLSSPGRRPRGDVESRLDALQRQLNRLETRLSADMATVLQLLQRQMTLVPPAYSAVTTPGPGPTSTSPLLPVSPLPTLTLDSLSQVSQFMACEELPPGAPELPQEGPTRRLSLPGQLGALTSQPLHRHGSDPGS

SMILES | hERG current change (%, negative = inhibition) at 10uM [%]
Cn1c(=O)c(NCCc2ccccc2)c2c3c(cccc31)C(=O)c1ccccc1-2 | -0.0383
Cc1ccc(S(=O)(=O)NCc2ccc(C(=O)NCc3cccnc3)cc2)cc1 | -5.09
COC(=O)COc1cccc(NS(=O)(=O)c2cccc([N+](=O)[O-])c2)c1 | 22
CCCCNC(=O)NNC(=O)c1cc(C)on1 | 2.93
CC1CCCC(NC(=O)COC(=O)c2ccccc2Sc2ccccc2C#N)C1C (stereo not shown) | -0.899
CCn1c(-c2nn(C)cc2Cl)n[nH]c1=S | 17.9
CCCCc1ccc(S(=O)(=O)NCCc2ccncc2)cc1 | -24.3
Cc1ccc(OCC(=O)N(Cc2ccc(N(C)C)cc2)C2CCS(=O)(=O)C2)cc1 (stereo not shown) | -31.8
COc1ccc(NC(=O)Nc2ccc(C(C)C)cc2)cc1 | 7.23
CCN/C=C(\C#N)S(=O)(=O)c1ccc(Br)cc1 | -14.5
CCC(C)[C@H](N)c1nnc(SCC(=O)c2ccc(Cl)cc2)o1 (stereo partly shown) | -52.5
Cc1cc(NC(=O)c2cncc(Br)c2)ccc1NC(=O)c1cc2ccccc2o1 | 9.39
CN(C)P(=NC(=O)COc1ccc(Cl)cc1Cl)(N(C)C)N(C)C | -2.49
COC(=O)C(C)(C)ONC(=O)Nc1ccccc1[N+](=O)[O-] | 2.07
Cc1ccc(Cl)cc1Nc1nc(-c2cccnc2)cs1 | 25.6
Cc1ccc(S(C)(=O)=NC(=O)c2cc(C)on2)cc1 (stereo not shown) | 14.7
O=C(CNc1ccc(Br)cc1)Nc1cccc(S(=O)(=O)N2CCCC2)c1 | -21.5
COc1ccc(S(=O)(=O)Cc2ccc(C(=O)N3CCN(c4ccccc4)CC3)o2)cc1 | -37.6
Cn1c(=O)n(CCc2ccccc2)c(=O)c2c1nc1n2CCCN1Cc1ccccc1 | 11.1
COC(=O)Cn1c2nc3ccccc3nc2c2cccc(C)c21 | 9.86
O=C1c2ccccc2-c2onc3ccc(NCCCn4ccnc4)c1c23 | -31.7
COc1ccc(OC)c(S(=O)(=O)N2CCCC(C(=O)NCc3ccncc3)C2)c1 (stereo not shown) | 20.4

SMILES | hERG current change (%, negative = inhibition) at 10uM [%]
CCc1cc2c(-c3ccccc3)cc(=O)oc2c(CN2CCOCC2)c1O | 0.162
CCN(CC)S(=O)(=O)c1ccc2nnn(OCC(=O)Nc3cccc(C#N)c3)c2c1 | -16.9
O=C(O)CCCNS(=O)(=O)c1ccc(Br)s1 | -3.2
Cc1ncc(C23CC4CC(CC(C4)C2)C3)[nH]1 | -9.96
Cc1ccc(S(=O)(=O)NCCNC(=O)c2cc(OCC(F)(F)F)ccc2OCC(F)(F)F)cc1 | 7.92
Cc1c(CC(=O)N2CCN(C(=O)C3COc4ccccc4O3)CC2)c(=O)oc2c(C)c(O)ccc12 (stereo not shown) | -20
CCOc1ccc(C(=O)/C=C/Nc2ccc(S(=O)(=O)N=C(N)N)cc2)cc1 | 14.9
CCOc1ccc(NC(=S)N2CCC(NC(=O)c3ccco3)CC2)cc1 | -31.6
O=C(Nc1ccccc1C(=O)NCCCn1ccnc1)c1ccc(Cl)cc1Cl | -47.1
Nc1cc(=O)[nH]c(SCc2nc3ccccc3n2Cc2ccccc2)n1 | -41.1
Cc1ccc(S(=O)(=O)N2CCN(C(=O)CSc3ccc(Cl)cc3)CC2)cc1 | 17
CN(CCOc1ccccc1)CC(=O)Nc1ccc(Br)cc1F | 6.09
COc1cc(NC(=O)c2cc([N+](=O)[O-])ccc2NC(=O)CN2CCN(c3ccccn3)CC2)cc(OC)c1 | -45.3
Cc1ncc(CO)c(CNc2ccc(-c3nc4ccccc4[nH]3)cc2)c1O | 19.8
COc1cc(/C=N/n2nnnc2N)cc(Cl)c1OC | -10.5
COc1ccc(S(=O)(=O)NCCSCc2cccs2)cc1 | -33.6
COc1ccccc1OCC(=O)NCC(C)NC(=O)COc1ccccc1OC (stereo not shown) | 4.93
Cc1cccc(Nc2nc(-c3ccc(O)cc3O)cs2)n1 | 3.52
CCn1c(SCC(=O)Nc2cccc(F)c2)nnc1-c1cc2cc(Br)ccc2o1 | 19.8
COc1ccc(Br)cc1CN(C)C(=O)c1ccncc1 | -2.7
CCCOc1ccc(CSCCNC(=S)Nc2ccccc2)cc1 | 16
CC(=O)n1cc([C@H]2C=C(C(=O)NCc3ccccc3)O[C@@H](OCc3ccc(CO)cc3)C2)c2ccccc21 | 15.6

SMILES | hERG current change (%, negative = inhibition) at 10uM [%]
O=C(CCC(F)(F)F)N1CCCC(N2CCN(c3cccc(Cl)c3)CC2)C1 (stereo not shown) | -46.8
C=CCNc1nc2ccccc2c(=O)[nH]1 | 23.2
CC(C)C(NC(=O)c1ccco1)C(=O)OCC(=O)NCCc1ccccc1 (stereo not shown) | 14.8
COC(=O)CC1=C(C(=O)OC)C2(C(=O)N(C)c3ccccc32)C(C#N)=C(N)O1 (stereo not shown) | 14.7
O=c1nc(SCc2cccc(C(F)(F)F)c2)nc2ccccn12 | -37
COCCNC(=O)c1cc(C(=O)CC(C)C)c[nH]1 | 14.1
Cc1ccc(C(=O)Nc2ccc3cn[nH]c3c2)cc1S(=O)(=O)N1CCOCC1 | -8.78
Cc1nonc1OCCCNc1ccc([N+](=O)[O-])cc1Cl | 9.59
CC(C)N(C(=O)C[n+]1ccc(/C=N/O)cc1)C(C)C | 9.47
COc1cccc(C(=O)N(C)CC(=O)Nc2ccc(F)c(F)c2F)c1 | 11.4
CCCC(=O)NCc1ccc2c(c1)cc(C)n2C | 5.43
O=C(Nc1nccs1)c1ccccc1Br | -21.5
CCOC(=O)c1ccc(NC(=O)c2ccc(CO)c(C(=O)NC3CCN(C(=O)OCC)CC3)c2)cc1 | 25.4
COc1ccc(C(CNC(=O)c2ccc(S(=O)(=O)N(C)C)cc2)N2CCCC2)cc1 (stereo not shown) | 4.17
Cc1cnc(NC(=O)C2CCCO2)s1 (stereo not shown) | -23.1
Cc1nn2c3ccccc3n(C)c2nc1=O | 14.3
COc1ccc(CNC(=O)/C=C/c2cc([N+](=O)[O-])ccc2OC(F)F)cc1OC | -16
Cc1ccc(OC(=O)c2cccc([N+](=O)[O-])c2)c(-n2nc3ccccc3n2)c1 | 23.4
Cc1ccc(C(C[N+](=O)[O-])c2c(N)n(C)c(=O)n(C)c2=O)cc1 (stereo not shown) | 9.93
O=C(Cn1nnc(-c2ccc(F)cc2)n1)Nc1ccc2c(c1)OCCO2 | 10.3
O=c1c2cc(F)ccc2sn1-c1ccccc1 | 15.5
COc1ccc(-c2nn(-c3ccccc3)cc2CNCCN2CCOC2=O)c(F)c1 | -11.9

SMILES | hERG current change (%, negative = inhibition) at 10uM [%]
O=C(CSc1nc(-c2ccc(F)cc2)cc(C(F)(F)F)n1)Nc1ccc2c(c1)OCO2 | 4.25
C=CCn1c(=O)/c(=C2/Sc3cc(OC)ccc3N2C)s/c1=C1\C(=O)N(CC)C(=S)N1C | 10.1
COc1ccc(Cl)cc1NC(=O)C(=O)NC1CCCCCC1 | -3.2
CC(C)(C)N1C(=O)c2ccccc2NC(=O)N1Cc1ccccc1 | 10.3
COc1ccc(-n2c(Cc3cccn3C)nnc2SCC(=O)Nc2cccc(OC)c2)cc1 | -23.4
CC(=O)Oc1c(Cl)c(N2CCOCC2)c(OC(C)=O)c2ccccc12 | -25.2
O=C(O)C1CC=CCC1C(=O)NCc1ccc(Cl)c(Cl)c1 (stereo not shown) | -24.5
CC(=O)c1ccc(NC(=S)Nc2ccc(N3CCOCC3)cc2)cc1.Cl | -3.37
O=C1CC(N2CCN(Cc3ccc(Cl)cc3)CC2)C(=O)N1CCc1ccccc1 (stereo not shown) | -37.4
COc1cccc(CN2CCN(C(=O)c3cccs3)CC2)c1OC | -4.33
CNC(=O)C(=O)NCCN1CCN(S(=O)(=O)c2ccc3ccccc3c2)CC1 | 29.3
Cc1ccc(-c2csc3ncnc(N4CCN(Cc5ccccc5)CC4)c23)cc1 | 18
Cc1ncc([N+](=O)[O-])n1CC(=O)NC1CCCC1 | 15.1
COc1ccc(-c2cc(C(=O)NC3=NCCS3)c3ccccc3n2)cc1OC | 6.78
O=C(COC(=O)c1cc([N+](=O)[O-])ccc1N1CCOCC1)Nc1ccccc1OC(F)F | -40.4
O=C(COC(=O)/C=C/c1ccc2c(c1)OCO2)NC1CCS(=O)(=O)C1 (stereo not shown) | -22.4
COc1cccc(NC(=O)CN(C)C(=O)Cc2c(C)nc3ccccc3c2C)c1 | -62.8
O=C(c1ccco1)c1cn[nH]c1-c1ccc(Cl)cc1O | -8.52
CC1=C(CC(=O)O)c2cc(F)ccc2/C1=C/c1ccc(S(C)=O)cc1 (stereo not shown) | 8.64
COc1ccc(-n2c3c(cc(C#N)c2=O)C(=O)CCC3)cc1 | 29.1
COc1ccc(N(C(=O)Cc2cccs2)C(C(=O)NC2CCCC2)c2ccncc2)cc1OC (stereo not shown) | 6.17
Cc1ccc2oc(-c3cccc(NC(=O)Cc4cccs4)c3)nc2c1 | 20.9

Reference: article PMC4336329 (PLoS ONE, 2015)
